# Measurements taken from the supplement of paper PMC8728848.
# This is one part of the list.
# Legend:
# Assay in all cases: glycan array binding signal (z-score within array); higher = stronger binding
# Details in all cases: glycan notation: IUPAC condensed, linker removed
# [1] = molecular target: GlcNAc(b1-3)Gal(b1-4)Glc
# In short: (§1)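 The binding signal is a Z-score computed within each array. Data were drawn from 3228 arrays in the Consortium for Functional Glycomics database, restricted to those with a known protein sequence. Scores were averaged over arrays of the same protein sequence at different concentrations or buffers, and over linkers, and negative values can be taken as non-binding.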
# [2] = molecular target: GlcNAc(b1-3)Gal(b1-4)GlcNAc
# In short: as §1
# [3] = molecular target: GlcNAc(b1-3)Gal(b1-4)GlcNAc(b1-3)Gal(b1-4)GlcNAc
# In short: as §1
# [4] = molecular target: GlcNAc(b1-3)GalNAc
# In short: as §1
# [5] = molecular target: GlcNAc(b1-3)Man
# In short: as §1
# [6] = molecular target: GlcNAc(b1-3)[GlcNAc(b1-4)][GlcNAc(b1-6)]GlcNAc
# In short: as §1
# [7] = molecular target: GlcNAc(b1-3)[GlcNAc(b1-6)]Gal(b1-4)GlcNAc
# In short: as §1
# [8] = molecular target: GlcNAc(b1-3)[GlcNAc(b1-6)]GalNAc
# In short: as §1
# [9] = molecular target: GlcNAc(b1-4)Gal(b1-4)GlcNAc
# In short: as §1
# [10] = molecular target: GlcNAc(b1-4)GlcNAc
# In short: as §1
# [11] = molecular target: GlcNAc(b1-4)GlcNAc(b1-4)GlcNAc
# In short: as §1
# [12] = molecular target: GlcNAc(b1-4)GlcNAc(b1-4)GlcNAc(b1-4)GlcNAc(b1-4)GlcNAc
# In short: as §1
# [13] = molecular target: GlcNAc(b1-4)GlcNAc(b1-4)GlcNAc(b1-4)GlcNAc(b1-4)GlcNAc(b1-4)GlcNAc
# In short: as §1
# [14] = molecular target: GlcNAc(b1-4)[GlcNAc(b1-6)]GalNAc
# In short: as §1
# [15] = molecular target: GlcNAc(b1-6)Gal(b1-4)GlcNAc
# In short: as §1
# [16] = molecular target: GlcNAc(b1-6)GalNAc
# In short: as §1
# [17] = molecular target: GlcNAc3Prop(b1-4)GlcNAc
# In short: as §1
# [18] = molecular target: Kdn(a2-3)Gal(b1-3)GlcNAc
# In short: as §1
# [19] = molecular target: Kdn(a2-3)Gal(b1-4)GlcNAc
# In short: as §1
# [20] = molecular target: Man(a1-2)Man(a1-2)Man(a1-3)Man
# In short: as §1
# [21] = molecular target: Man(a1-2)Man(a1-2)Man(a1-6)[Man(a1-3)]Man
# In short: as §1
# [22] = molecular target: Man(a1-2)Man(a1-3)Man
# In short: as §1
# [23] = molecular target: Man(a1-2)Man(a1-3)[Man(a1-2)Man(a1-6)]Man
# In short: as §1
# [24] = molecular target: Man(a1-2)Man(a1-3)[Man(a1-2)Man(a1-6)]Man(a1-6)[Man(a1-2)Man(a1-2)Man(a1-3)]Man
# In short: as §1
# [25] = molecular target: Man(a1-2)Man(a1-3)[Man(a1-2)Man(a1-6)]Man(a1-6)[Man(a1-2)Man(a1-2)Man(a1-3)]Man(b1-4)GlcNAc(b1-4)GlcNAc
# In short: as §1
# [26] = molecular target: Man(a1-2)Man(a1-3)[Man(a1-6)]Man(a1-6)[Man(a1-2)Man(a1-3)]Man(b1-4)GlcNAc(b1-4)GlcNAc
# In short: as §1
# [27] = molecular target: Man(a1-2)Man(a1-6)[Man(a1-3)]Man(a1-6)[Man(a1-2)Man(a1-2)Man(a1-3)]Man
# In short: as §1
# [28] = molecular target: Man(a1-2)Man(a1-6)[Man(a1-3)]Man(a1-6)[Man(a1-2)Man(a1-2)Man(a1-3)]Man(b1-4)GlcNAc(b1-4)GlcNAc
# In short: as §1
# [29] = molecular target: Man(a1-3)[Man(a1-6)]Man
# In short: as §1
# [30] = molecular target: Man(a1-3)[Man(a1-6)]Man(a1-6)[Man(a1-2)Man(a1-3)]Man(b1-4)GlcNAc(b1-4)GlcNAc
# In short: as §1
# [31] = molecular target: Man(a1-3)[Man(a1-6)]Man(a1-6)[Man(a1-3)]Man
# In short: as §1
# [32] = molecular target: Man(a1-3)[Man(a1-6)]Man(a1-6)[Man(a1-3)]Man(b1-4)GlcNAc(b1-4)GlcNAc
# In short: as §1
# [33] = molecular target: Man(a1-3)[Man(a1-6)]Man(b1-4)GlcNAc(b1-4)GlcNAc
# In short: as §1
# [34] = molecular target: Man(a1-6)Man
# In short: as §1
# [35] = molecular target: Man(b1-4)GlcNAc
# In short: as §1
# [36] = molecular target: Neu5Ac(a2-3)Gal
# In short: as §1
# [37] = molecular target: Neu5Ac(a2-3)Gal(b1-3)GalNAc
# In short: as §1
# [38] = molecular target: Neu5Ac(a2-3)Gal(b1-3)GalNAc(b1-3)Gal(a1-4)Gal(b1-4)Glc
# In short: as §1
# [39] = molecular target: Neu5Ac(a2-3)Gal(b1-3)GalNAc(b1-3)Gal(b1-4)GlcNAc
# In short: as §1
# [40] = molecular target: Neu5Ac(a2-3)Gal(b1-3)GalNAc(b1-4)[Neu5Ac(a2-3)]Gal(b1-4)Glc
# In short: as §1
# [41] = molecular target: Neu5Ac(a2-3)Gal(b1-3)GalNAc6S
# In short: as §1
# [42] = molecular target: Neu5Ac(a2-3)Gal(b1-3)GlcNAc
# In short: as §1
# [43] = molecular target: Neu5Ac(a2-3)Gal(b1-3)GlcNAc(b1-3)Gal(b1-3)GlcNAc
# In short: as §1
# [44] = molecular target: Neu5Ac(a2-3)Gal(b1-3)GlcNAc6S
# In short: as §1
# [45] = molecular target: Neu5Ac(a2-3)Gal(b1-3)[Fuc(a1-4)]GlcNAc
# In short: as §1
binder,measurement,setting,value
"Codakine (Codakia orbicularis), Q3KVL7_9BIVA (protein) MKILVAVFLVLVVVGTAAAGCPDGWTQFLDLCYIYQSAKASWASAQSSCQALGGILAEPDTACENEVLIHMCRENGDAGSFGPWLGGQKVGGAWQWSSSGAAFDYLRWGPNEPNNSGGNEDCLHYNWLSWNDLRCHYQASYLCQRAAE",glycan array binding signal (z-score),[1],-0.148
same,glycan array binding signal (z-score),[2],-0.291
same,glycan array binding signal (z-score),[3],-0.251
same,glycan array binding signal (z-score),[4],-0.349
same,glycan array binding signal (z-score),[5],-0.214
same,glycan array binding signal (z-score),[6],-0.28
same,glycan array binding signal (z-score),[7],-0.263
same,glycan array binding signal (z-score),[8],-0.291
same,glycan array binding signal (z-score),[9],-0.3
same,glycan array binding signal (z-score),[10],-0.313
same,glycan array binding signal (z-score),[11],-0.231
same,glycan array binding signal (z-score),[12],-0.244
same,glycan array binding signal (z-score),[13],-0.341
same,glycan array binding signal (z-score),[14],-0.163
same,glycan array binding signal (z-score),[15],-0.232
same,glycan array binding signal (z-score),[16],-0.313
same,glycan array binding signal (z-score),[17],-0.313
same,glycan array binding signal (z-score),[18],-0.323
same,glycan array binding signal (z-score),[19],-0.348
same,glycan array binding signal (z-score),[20],-0.334
same,glycan array binding signal (z-score),[21],0.492
same,glycan array binding signal (z-score),[22],-0.31
same,glycan array binding signal (z-score),[23],0.573
same,glycan array binding signal (z-score),[24],0.651
same,glycan array binding signal (z-score),[25],0.264
same,glycan array binding signal (z-score),[26],0.554
same,glycan array binding signal (z-score),[27],0.392
same,glycan array binding signal (z-score),[28],0.568
same,glycan array binding signal (z-score),[29],0.669
same,glycan array binding signal (z-score),[30],0.779
same,glycan array binding signal (z-score),[31],-0.043
same,glycan array binding signal (z-score),[32],0.708
same,glycan array binding signal (z-score),[33],4.3
same,glycan array binding signal (z-score),[34],0.449
same,glycan array binding signal (z-score),[35],-0.156
same,glycan array binding signal (z-score),[36],-0.312
same,glycan array binding signal (z-score),[37],-0.216
same,glycan array binding signal (z-score),[38],-0.317
same,glycan array binding signal (z-score),[39],-0.267
same,glycan array binding signal (z-score),[40],-0.118
same,glycan array binding signal (z-score),[41],-0.162
same,glycan array binding signal (z-score),[42],-0.353
same,glycan array binding signal (z-score),[43],-0.367
same,glycan array binding signal (z-score),[44],-0.08
same,glycan array binding signal (z-score),[45],-0.34
